Experimental data as given in patent publication US20240239854A1, “ANTIMICROBIAL PEPTIDES AND MODIFICATIONS THEREOF” (Donald Danforth Plant Science Center, priority 2022, published 2024).
Residues, ends and D or L forms follow the SMILES beside them.

Test system: B. cinerea
Assay: In planta assay on detached Nicotiana benthamiana leaves, gray mold (Example 1)
Conditions: applied on detached Nicotiana benthamiana leaves

Row | Structure (SMILES) | Reduction of gray mold disease symptoms
1 | CC[C@H](C)[C@H](NC(=O)[C@H](CCCNC(=N)N)NC(=O)[C@@H](NC(=O)[C@H](CS)NC(=O)[C@H](Cc1ccccc1)NC(=O)[C@H](CS)NC(=O)[C@H](CCCNC(=N)N)NC(=O)[C@H](CCCNC(=N)N)NC(=O)[C@H](CCCNC(=N)N)NC(=O)[C@H](Cc1ccccc1)NC(=O)CNC(=O)[C@H](CCCCN)NC(=O)[C@H](CS)NC(=O)[C@H](CCCNC(=N)N)NC(=O)CNC(=O)CN)[C@@H](C)O)C(=O)N[C@@H](CS)C(N)=O [GMA4C_V1A] (H-GGRCKGFRRRCFCTRIC-NH2; N-terminus assumed) | more potent than GMA4C_AC or GMA4C_V2A
2 | CC[C@H](C)[C@H](NC(=O)[C@H](CCCNC(=N)N)NC(=O)[C@@H](NC(=O)[C@@H](NC(=O)[C@H](Cc1ccccc1)NC(=O)[C@@H](NC(=O)[C@H](CCCNC(=N)N)NC(=O)[C@H](CCCNC(=N)N)NC(=O)[C@H](CCCNC(=N)N)NC(=O)[C@H](Cc1ccccc1)NC(=O)CNC(=O)[C@H](CCCNC(=N)N)NC(=O)[C@H](CS)NC(=O)[C@H](CCCNC(=N)N)NC(=O)CNC(=O)CN)C(C)C)C(C)C)[C@@H](C)O)C(=O)N[C@@H](CS)C(N)=O [GMA4C_V3A] (H-GGRCRGFRRRVFVTRIC-NH2; N-terminus assumed) | more potent than GMA4C_AC or GMA4C_V2A
